Where “and” joins values, the source holds several entries; their conditions need not be identical. Equal values may be shown once.
Assays:
[1] = target: T1, VEGF-C (UniProt P49767 112-227, limits assumed); assay: ELISA, coated VEGF-C, anti-human Fc-HRP
T1 construct: Bought reagent
T1 sequence (looked up): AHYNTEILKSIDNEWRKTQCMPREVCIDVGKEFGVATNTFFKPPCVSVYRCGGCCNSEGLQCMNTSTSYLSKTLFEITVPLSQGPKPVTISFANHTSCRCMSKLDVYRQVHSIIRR

[2] = target: T1, VEGF-C; assay: blocking ELISA, VEGF-C-His to coated VEGFR3-Fc
Experimental: (§1) During the blocking period, each recombinant receptor molecule was serially diluted from high to low concentrations, mixed evenly with 10 ng/well of VEGF-C or 500 ng/well of VEGF-D (both labeled with His-tag), allowing for incubation at room temperature for 30 minutes. […] The plates were washed with PBST, then TMB was added for color development, terminated with 5% hydrochloric acid solution, and finally, the OD values at 450 nm were read using a microplate reader.

[3] = target: T2, VEGF-D (UniProt O43915 89-205, limits assumed); assay: blocking ELISA, VEGF-D-His to coated VEGFR3-Fc
T2 construct: Bought reagent
T2 sequence (looked up): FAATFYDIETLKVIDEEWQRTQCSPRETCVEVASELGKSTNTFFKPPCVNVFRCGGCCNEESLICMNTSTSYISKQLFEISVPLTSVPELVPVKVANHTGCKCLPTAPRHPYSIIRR
Experimental: as §1

[4] = target: T2, VEGF-D; assay: blocking ELISA, VEGF-D-His to coated VEGFR2-Fc; row head prints uM, ng/ml row implies nM
Experimental: as §1, with “100” for “10”, “or” for “or 500 ng/well of”, “then anti-polyhistidine secondary antibody conjugated with horseradish peroxidase was added to allow for incubation and binding at room temperature for 1 hour. Then the plates were washed with PBST,” for “then”

[5] = target: T1, VEGF-C; assay: blocking ELISA, VEGF-C-His to coated VEGFR3-Fc; row head prints uM, ng/ml row implies nM
Experimental: as §1

[6] = target: T2, VEGF-D; assay: blocking ELISA, VEGF-D-His to coated VEGFR2-Fc
Experimental: as §1, with “100” for “10”, “or” for “or 500 ng/well of”, “then anti-polyhistidine secondary antibody conjugated with horseradish peroxidase was added to allow for incubation and binding at room temperature for 1 hour. Then the plates were washed with PBST,” for “then”

[7] = target: T1, VEGF-C; assay: blocking ELISA, VEGF-C-His to coated VEGFR2-Fc
Experimental: as §1, with “100” for “10”, “or” for “or 500 ng/well of”, “then anti-polyhistidine secondary antibody conjugated with horseradish peroxidase was added to allow for incubation and binding at room temperature for 1 hour. Then the plates were washed with PBST,” for “then”

[8] = target: T3, VEGF-A165 (UniProt P15692-4 27-191); assay: blocking ELISA: His-VEGF-A165 premixed with sample, binding to coated VEGFR2-Fc read with anti-His-HRP
T3 construct: Bought reagent
T3 sequence (looked up): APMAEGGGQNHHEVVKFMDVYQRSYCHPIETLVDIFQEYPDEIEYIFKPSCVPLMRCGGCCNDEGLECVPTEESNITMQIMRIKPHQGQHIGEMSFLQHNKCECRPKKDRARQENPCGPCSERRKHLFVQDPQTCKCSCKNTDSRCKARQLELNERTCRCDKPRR

[9] = target: T1, VEGF-C; assay: blocking ELISA: His-VEGF-C premixed with sample, binding to coated VEGFR2-Fc read with anti-His-HRP
Experimental: as §1, with “100” for “10”, “or” for “or 500 ng/well of”, “then anti-polyhistidine secondary antibody conjugated with horseradish peroxidase was added to allow for incubation and binding at room temperature for 1 hour. Then the plates were washed with PBST,” for “then”

[10] = target: T2, VEGF-D; assay: blocking ELISA: His-VEGF-D premixed with sample, binding to coated VEGFR3-Fc read with anti-His-HRP
Experimental: as §1

[11] = target: T2, VEGF-D; assay: blocking ELISA: His-VEGF-D premixed with sample, binding to coated VEGFR2-Fc read with anti-His-HRP
Experimental: as §1, with “100” for “10”, “or” for “or 500 ng/well of”, “then anti-polyhistidine secondary antibody conjugated with horseradish peroxidase was added to allow for incubation and binding at room temperature for 1 hour. Then the plates were washed with PBST,” for “then”

[12] = target: T2, VEGF-D; assay: as above; remark: listed apart in the source
Experimental: as §1, with “100” for “10”, “or” for “or 500 ng/well of”, “then anti-polyhistidine secondary antibody conjugated with horseradish peroxidase was added to allow for incubation and binding at room temperature for 1 hour. Then the plates were washed with PBST,” for “then”

[13] = target: T3, VEGF-A165; assay: blocking ELISA: His-VEGF-A165 premixed with sample, binding to coated VEGFR2-Fc read with anti-His-HRP; remark: listed apart in the source
[14] = target: T1, VEGF-C; assay: blocking ELISA: His-VEGF-C premixed with sample, binding to coated VEGFR2-Fc read with anti-His-HRP; remark: listed apart in the source
Experimental: as §1, with “100” for “10”, “or” for “or 500 ng/well of”, “then anti-polyhistidine secondary antibody conjugated with horseradish peroxidase was added to allow for incubation and binding at room temperature for 1 hour. Then the plates were washed with PBST,” for “then”

[15] = target: T3, VEGF-A165; assay: ELISA, coated VEGF-A 165, anti-human Fc-HRP
[16] = target: T4, VEGF-A (isoform not given) (UniProt P15692-4 27-191, limits assumed); assay: SPR Biacore T200, trap captured on Protein A chip, antigen in flow
T4 construct: May be the same reagent as VEGF-A165
T4 sequence (looked up): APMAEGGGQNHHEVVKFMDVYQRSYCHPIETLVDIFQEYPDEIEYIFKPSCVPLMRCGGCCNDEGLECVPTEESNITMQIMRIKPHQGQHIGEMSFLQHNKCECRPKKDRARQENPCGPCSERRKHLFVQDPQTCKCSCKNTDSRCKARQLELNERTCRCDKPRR

B1: R3A (Fc fusion)
chain: YSMTPPTLNITEESHVIDTGDSLSISCRGQHPLEWAWPGAQEAPATGDKDSEDTGVVRDCEGTDARPYCKVLLLHEVHANDTGSYVCYYKYIKARIEGTTAASSYVFVRDFEQPFINKPDTLLVNRKDAMWVPCLVSIPGLNVTLRSQSSVLWPDGQEVVWDDRRGMLVSTPLLHDALYLQCETTWGDQDFLSNPFLVHITGNELYDIQLLPRKSLELLVGEKLVLNCTVWAEFNSGVTFDWDYPGKQAERGKWVPERRSQQTHTELSSILTIHNVSQHDLGSYVCKANNGIQRFRESTEVIVHE[here human IgG1 Fc without letters]
EC50 [1]: 0.162 µg/mL and 1.35 nM | EC50 [2]: 0.561 µg/mL | EC50 [3]: 2.45 µg/mL and 20.4 nM | EC50 [4]: 4400 nM | EC50 [5]: 4670 nM | EC50 [6]: 0.532 µg/mL | EC50 [7]: 7.81 µg/mL and 65.1 nM

B2: LFV-H (Fc fusion)
Fc fusion chain: SPFIASVSDQHGVVYITENKQKTVVIPCLGSISNLNVSLCARYPEKRFVPDGNRISWDSKKGFTIPSYMISYAGMVFCEAKINDESYQSIMYIVVVVGYRIYDVVLSPSHGIELSVGEKLVLNCTARTELNVGIDFNWEYPSSKHQHKKLVNRDLKTQSGSEMKKFLSTLTIDGVTRSDQGLYTCAASSGLMTKKNSTFVRVHEKGPG[here human IgG1 Fc without letters]
notes: also called LFV-H Recombinant receptor molecule
EC50 [8]: 4.26 nM | EC50 [9]: 26.7 nM | EC50 [10]: 4.08 nM | EC50 [11]: 4.77 nM

B3: LFV-J (Fc fusion)
Fc fusion chain: SPFIASVSDQHGVVYITENKNKTVVIPCLGSISNLQVSLCARYPEKRFVPDGNRISWDSKKGFTIPSYMISYAGMVFCEAKINDESYQSIMYIVVVVGYRIYDVVLSPSHGIELSVGEKLVLNCTARTELNVGIDFNWEYPSSKHQHKKLVNRDLKTQSGSEMKKFLSTLTIDGVTRSDQGLYTCAASSGLMTKKNSTFVRVHEKGPG[here human IgG1 Fc without letters]
notes: also called LFV-J Recombinant receptor molecule
EC50 [8]: 11.9 nM | EC50 [9]: 28.6 nM | EC50 [10]: 3.3 nM | EC50 [11]: 5.16 nM

B4: LFV-K Recombinant receptor molecule (Fc fusion)
chain: SPFIASVSDQHGVVYITENKNKTVVIPCLGSISNLNVSLCARYPEKRFVPDGNRISWDSKKGFTIPSYMISYAGMVFCEAKINDESYQSIMYIVVVVGYRIYDVVLSPSHGIELSVGEKLVLQCTARTELNVGIDFNWEYPSSKHQHKKLVNRDLKTQSGSEMKKFLSTLTIDGVTRSDQGLYTCAASSGLMTKKNSTFVRVHEKGPG[here human IgG1 Fc without letters]
EC50 [12]: 1.27 nM | EC50 [8]: 3.05 nM | EC50 [13]: 2.74 nM | EC50 [14]: 6.54 nM | EC50 [9]: 25.9 nM | EC50 [10]: 2.28 nM | EC50 [11]: 1.82 nM

B5: LFV-L (Fc fusion)
Fc fusion chain: SPFIASVSDQHGVVYITENKNKTVVIPCLGSISNLNVSLCARYPEKRFVPDGNRISWDSKKGFTIPSYMISYAGMVFCEAKINDESYQSIMYIVVVVGYRIYDVVLSPSHGIELSVGEKLVLNCTARTELNVGIDFNWEYPSSKHQHKKLVNRDLKTQSGSEMKKFLSTLTIDGVTRSDQGLYTCAASSGLMTKKQSTFVRVHEKGPG[here human IgG1 Fc without letters]
notes: also called LFV-L Recombinant receptor molecule
EC50 [8]: 4.22 nM | EC50 [9]: 27 nM | EC50 [10]: 2.22 nM | EC50 [11]: 1.78 nM

B6: LFV-D Recombinant receptor molecule (Fc fusion)
chain: YVQDYRSPFIASVSDQHGVVYITENKNKTVVIPCLGSISNLNVSLCARYPEKRFVPDGNRISWDSKKGFTIPSYMISYAGMVFCEAKINDESYQSIMYIVVVVGYRIYDVVLSPSHGIELSVGEKLVLNCTARTELNVGIDFNWEYPSSKHQHKKLVNRDLKTQSGSEMKKFLSTLTIDGVTRSDQGLYTCAASSGLMTKKNSTFVRVHEKPFVAFGSGMESLVEATVGERVRIPAKYLGYPPPEIKWYKNGIPLESNHTIKAGHVLTIMEVSERDTGNYTVILTNPISKEKQSHVVSLVVYVPPGPG[here human IgG1 Fc without letters]
EC50 [1]: 1.6 nM and 0.192 µg/mL | EC50 [2]: 4.32 µg/mL | EC50 [3]: 10 µg/mL and 83.7 nM | EC50 [4]: 7700 nM | EC50 [15]: 0.476 µg/mL and 3.97 nM | EC50 [5]: 36000 nM | EC50 [6]: 0.92 µg/mL | EC50 [7]: 58.3 µg/mL and 486 nM

B7: LFV-F Recombinant receptor molecule (Fc fusion)
chain: GLPSVSLDLPRLSIQKDILTIKANTTLQITCRGQRDLDWLWPNNQSGSEQRVEVTECSDGLFCKTLTIPKVIGNDTGAYKCFYRETDLASVIYVYVQDYRSPFIASVSDQHGVVYITENKNKTVVIPCLGSISNLNVSLCARYPEKRFVPDGNRISWDSKKGFTIPSYMISYAGMVFCEAKINDESYQSIMYIVVVVGYRIYDVVLSPSHGIELSVGEKLVLNCTARTELNVGIDFNWEYPSSKHQHKKLVNRDLKTQSGSEMKKFLSTLTIDGVTRSDQGLYTCAASSGLMTKKNSTFVRVHEKPFVAFGSGMESLVEATVGERVRIPAKYLGYPPPEIKWYKNGIPLESNHTIKAGHVLTIMEVSERDTGNYTVILTNPISKEKQSHVVSLVVYVPPGPG[here human IgG1 Fc without letters]
EC50 [1]: 6.5 nM and 0.916 µg/mL | EC50 [2]: 2.92 µg/mL | EC50 [3]: 3.44 µg/mL and 24.4 nM | EC50 [4]: 3700 nM | EC50 [15]: 0.983 µg/mL and 6.99 nM | EC50 [5]: 20700 nM | EC50 [6]: 0.522 µg/mL | EC50 [7]: 24 µg/mL and 171 nM

B8: LFV-001 Recombinant receptor molecule (Fc fusion)
chain: YSMTPPTLNITEESHVIDTGDSLSISCRGQHPLEWAWPGAQEAPATGDKDSEDTGVVRDCEGTDARPYCKVLLLHEVHANDTGSYVCYYKYIKARIEGTTAASSYVFVRDFEQPFINKPDTLLVNRKDAMWVPCLVSIPGLNVTLRSQSSVLWPDGQEVVWDDRRGMLVSTPLLHDALYLQCETTWGDQDFLSNPFLVHITGYRIYDVVLSPSHGIELSVGEKLVLNCTARTELNVGIDFNWEYPSSKHQHKKLVNRDLKTQSGSEMKKFLSTLTIDGVTRSDQGLYTCAASSGLMTKKNSTFVRVHEKGPG[here human IgG1 Fc without letters]
notes: also called LFV-001/V0
EC50 [1]: 3.3 nM and 0.399 µg/mL | EC50 [2]: 0.189 µg/mL | EC50 [3]: 2.44 µg/mL and 20.3 nM | EC50 [4]: 12800 nM | EC50 [5]: 1570 nM | EC50 [6]: 1.54 µg/mL | Kd [16]: 0.54 nM | koff [16]: 0.00152 s⁻¹ | kon [16]: 2.82e+06 M⁻¹ s⁻¹ | EC50 [7]: 3.59 µg/mL and 29.9 nM

— patent US20250002557A1 (SUZHOU LIGHT FERRY BIOMED, published 2025)
